Where “and” joins values, the source holds several entries; their conditions need not be identical. Equal entries are not always repeated. The campaign covered roughly 200,000 compounds. About 4,500 (2.2%) were called active. The inconclusive results got no clear call from the source; some entries with a clear call stand among them for comparison. Calls follow the shape of the dose curve; as a rule, active = well fitted inhibition curve with a large enough effect; inconclusive = small, poorly fitted or top-dose-only effect, or effect the other way; inactive = flat fitted curve, though single readings scatter. Where the call is inconclusive, the potency comes from a doubtful curve fit.
Each compound was assayed against Cruzipain (Trypanosoma cruzi) (UniProt P25779) (assay: qHTS Assay for Promiscuous and Specific Inhibitors of Cruzain (without detergent)). Details: purified cruzain, Z-FR-AMC fluorescence, no detergent.
UniProt P25779, sequence (P25779 whole entry, looked up): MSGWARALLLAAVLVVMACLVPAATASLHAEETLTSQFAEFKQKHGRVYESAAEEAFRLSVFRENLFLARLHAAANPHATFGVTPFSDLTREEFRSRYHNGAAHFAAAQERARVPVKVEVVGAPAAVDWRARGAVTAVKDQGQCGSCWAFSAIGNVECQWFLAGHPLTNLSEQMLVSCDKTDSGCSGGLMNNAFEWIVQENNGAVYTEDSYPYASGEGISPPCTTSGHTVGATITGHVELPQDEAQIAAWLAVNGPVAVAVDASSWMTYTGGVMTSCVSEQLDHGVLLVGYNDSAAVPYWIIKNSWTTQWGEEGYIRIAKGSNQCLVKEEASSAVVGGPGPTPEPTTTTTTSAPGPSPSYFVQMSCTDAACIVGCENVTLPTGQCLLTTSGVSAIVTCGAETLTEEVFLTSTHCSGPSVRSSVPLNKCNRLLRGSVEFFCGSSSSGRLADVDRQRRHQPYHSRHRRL
Procedure, shortened: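 Detergent-free condition (0.00005% Triton X-100) in acetate buffer pH 5.5 with DTT. 1.5 nM enzyme and compound were pre-mixed 15 min, then 2 uM Z-FR-AMC substrate added; reaction progress from fluorescence change between first and third reads (60 s).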
With `CCn1cc(C(=O)NCc2ccc(Cl)cc2)c(=O)c2cc(S(=O)(=O)N3CCOCC3)ccc21` the Potency was inconclusive: 39.8 µM [activator, single point]. For `CCCOP(=O)(OCCC)C(Nc1ccc(C(C)C)cc1)c1ccc([N+](=O)[O-])cc1` (stereo unspecified), the Potency was inconclusive: 25.1 µM [activator, single point]. In the case of `O=C(O)C1CCN(c2nc(-c3ccccc3)nc3c2oc2ccccc23)CC1`, the Potency is reported as inconclusive: 39.8 µM [activator, single point]. `Cn1nc(-c2ccccc2)c(COC(=O)c2cccc(Cl)c2)c1S(=O)(=O)c1ccccc1` was tested, and the Potency was active: 25.1 µM. In the case of `CCOc1cc(C(=O)OCC(=O)c2c(N)n(C)c(=O)n(C)c2=O)cc(OCC)c1OCC`, the Potency is reported as inconclusive: 39.8 µM [activator, single point]. `COC(=O)[C@@]1(Cc2ccc(OC)cc2)[C@H]2c3cc(C(=O)N(C)C)n(CCc4ccc(OC)c(Br)c4)c3C[C@H]2CN1C(=O)c1ccccc1` was tested, and the Potency was inconclusive: 25.1 µM [activator, partial curve] and inconclusive: 10 µM [activator, partial curve]. `Cc1ccc(NC=C(S(=O)(=O)c2ccccc2)S(=O)(=O)c2ccccc2)c(C)c1` was tested, and the Potency was inconclusive: 39.8 µM [inhibitor, single point]. For `COc1ccccc1N1CCN(C(=O)c2ccc(CS(=O)(=O)c3ccccc3OC)o2)CC1`, the Potency was inconclusive: 39.8 µM [activator, single point]. In the case of `CNC(=O)C1CC(=O)N(Cc2ccc3c(c2)OCO3)C(=Nc2ccc(OC)cc2)S1` (stereo unspecified), the Potency is reported as inconclusive: 31.6 µM [activator, single point]. `Cc1cc(/C=C2\Cc3ccccc3C2=O)c(C)n1-c1ccccc1` was tested, and the Potency was active: 15.8 µM. `Cc1cccc(C)c1Nc1nnc(SCC(=O)Nc2cc(S(=O)(=O)N3CCCCC3)ccc2Cl)s1` was tested, and the Potency was active: 12.6 µM. For `CCOc1ccc(N(C(C)C(=O)NCCSc2ccc(Cl)cc2)S(C)(=O)=O)cc1` (stereo unspecified), the Potency was inconclusive: 31.6 µM [activator, single point]. With `CCOc1ccc(S(=O)(=O)N(C)C)cc1-c1nc2c(C(C)(C)C)nn(C)c2c(=O)[nH]1` the Potency was inconclusive: 31.6 µM [activator, single point]. For `O=C(N/N=C/c1ccc(-c2cccc([N+](=O)[O-])c2)o1)[C@H]1C[C@@H]1c1ccccc1`, the Potency was inconclusive: 31.6 µM [inhibitor, single point]. With `CCOc1cc(C(=O)Nc2ccccc2N2CCN(S(C)(=O)=O)CC2)cc(OCC)c1OCC` the Potency was inconclusive: 25.1 µM [activator, partial curve]. With `CN(C)c1ccc(N/C=C/C(=O)c2ccc(F)cc2)cc1` the Potency was inconclusive: 39.8 µM [inhibitor, single point]. `O=C(CSc1nc2ccccc2c(=O)n1-c1ccc(F)cc1F)Nc1ccc2c(c1)CCC2` was tested, and the Potency was inconclusive: 39.8 µM [inhibitor, single point]. For `COc1cc(NC(=O)c2ccc3c(Cl)c4c(nc3c2)CCC4)cc(OC)c1OC`, the Potency was inconclusive: 20 µM [activator, partial curve, poor fit]. With `CC(=O)c1cccc(-n2c(=O)c3c4c(sc3n(CC(=O)Nc3ccccc3F)c2=O)CN(C(C)=O)CC4)c1` the Potency was inconclusive: 15.8 µM [activator, partial curve]. With `CCOC(=O)C1CCCN(C(=O)c2ccc3c(c2)sc2nc(-c4ccc(C)cc4C)cn23)C1` (stereo unspecified) the Potency was inconclusive: 5.01 µM [inhibitor, single point]. With `Fc1ccc(N=C2NN=C(c3cc(F)ccc3F)CS2)cc1` the Potency was inconclusive: 31.6 µM [inhibitor, single point]. In the case of `COc1cccc(Cn2c(SCc3ccc(C(=O)N4CCCCC4)cc3)nc3ccncc32)c1`, the max response, negative = inhibition is reported as inactive: 12.2%. In the case of `COc1ccc(N2Cc3cccc(C(=O)Nc4ccc(Cl)cc4)c3C2=O)cc1`, the max response, negative = inhibition is reported as inactive: -3.2%. `COc1cc([N+](=O)[O-])ccc1NC(=O)Nc1nc2c(s1)CCCC2` was tested, and the Potency was inconclusive: 25.1 µM [activator, partial curve]. With `CCn1c(CNC(=O)Cc2ccc(OC)cc2)nnc1SCC(=O)Nc1nccs1` the max response, negative = inhibition was inactive: -6.6%. `CCC(C=C[C@@H]1OC(=O)C=C[C@H]1C)=C[C@H](C)CC=CC(C)=C[C@@H](C)C(=O)[C@@H](C)[C@H](O)[C@@H](C)CC(C)=CC(=O)O` was tested, and the Potency was inconclusive: 0.112 µM [inhibitor, partial curve]. In the case of `Cc1cc(NC(=O)CSc2nc3c(sc4ccccc43)c(=O)n2CCc2ccccc2)n[nH]1`, the Potency is reported as active: 7.94 µM. In the case of `Cc1ccc(-c2noc(-c3cc4ccccc4oc3=O)n2)cc1`, the Potency is reported as inconclusive: 25.1 µM [inhibitor, single point]. In the case of `N#C/C(C(=O)c1ccccc1)=C1/SC=C(N)N1c1ccccc1`, the Potency is reported as inconclusive: 39.8 µM [inhibitor, single point]. `CC(C)(C)c1cc2c(O)c(c1)Cc1cc(C(C)(C)C)cc(c1O)Cc1cc(C(C)(C)C)cc(c1O)Cc1cc(C(C)(C)C)cc(c1O)Cc1cc(C(C)(C)C)cc(c1O)Cc1cc(C(C)(C)C)cc(c1O)Cc1cc(C(C)(C)C)cc(c1O)Cc1cc(C(C)(C)C)cc(c1O)C2` was tested, and the max response, negative = inhibition was inactive: 2.13%. In the case of `CN(C)C=NC(=O)c1ccc(N2CCN(c3ncc(C(F)(F)F)cc3Cl)CC2)cc1`, the Potency is reported as inconclusive: 39.8 µM [activator, single point]. With `COc1ccccc1[C@H]1C(c2cccc(Cl)c2)=NN(c2ccccc2)[C@@H]1CO` the Potency was inconclusive: 17.8 µM [inhibitor, partial curve, poor fit]. For `Nc1c(C(=O)Nc2nccs2)sc2nc(-c3cccs3)cc(C(F)(F)F)c12`, the Potency was inconclusive: 20 µM [activator, single point]. `COc1ccc2[nH]cc(CCNc3cc(-c4c(C)noc4C)ncn3)c2c1` was tested, and the max response, negative = inhibition was inactive: -12.4%. For `COc1ccc(-c2ccc3c(N)c(C(=O)NCc4ccc(C)cc4)sc3n2)cc1`, the Potency was active: 15.8 µM. With `Cc1ccc2c(=O)cc(C(=O)Nc3sc4c(c3C(=O)NCC3CCCO3)CCCC4)oc2c1C` (stereo unspecified) the max response, negative = inhibition was inactive: 1.7%.

Source: PubChem BioAssay AID1476 (National Center for Advancing Translational Sciences (NCATS), 2009)
Also: nearly all actives have a fitted effect of over 40% in size.
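For max response, negative = inhibition in this document: plate controls were enzyme without inhibitor for no effect and buffer without enzyme for full effect.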
Potency is read from the fitted curve at half-maximal effect; tags tell the direction and shape of the fitted curve.
